From PubChem BioAssay AID743279 (National Center for Advancing Translational Sciences (NCATS), 2014)
Screen size: about 360,000 compounds; about 17,000 (4.7%) were called active. The shares of active, inactive and inconclusive entries below differ from those in the screen. Cut-off read from the data, not from the text of the source: active = activity change below about -50%; inconclusive = mostly about -30% to -49%; inactive = weaker than that.

experiment: qHTS for Inhibitors of Inflammasome Signaling: IL-1-beta AlphaLISA Primary Screen; settings: THP-1 LPS/ATP IL-1B secretion, 16 h; at 57.5 µM, stronger effect = lower value
Method in brief: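 Secreted IL-1B measured by AlphaLISA bead assay after 16 h compound exposure of THP-1 cells; compounds (final up to 57.5 uM) added 1 h before LPS (250 ng/mL) and ATP (1.25 mM) stimulation; lower signal means less secretion.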
% is set by controls: 0 for no effect and ±100 for the full control effect.

Activity change, inactive:
COc1cc(-c2nnc(-c3cccs3)o2)cc(OC)c1OC -26.8%, C=C(C)C1CC=C(C)/C(=N/NC(=S)Nc2ccccc2)C1 (centres undefined) 12.9%, CC(C)(C)OC(=O)N1CCCC(C(=O)Nc2cccc(C(=O)NCCCc3ccccc3)c2)C1 (centres undefined) -1.5%, CC(=O)N1CCc2cc(S(=O)(=O)NCCC(=O)NCCc3ccc(C)cc3)ccc21 -0.197%, CC(C)N=c1scc(-c2ccco2)n1/N=C/c1ccc(O)c(O)c1 -12.8%, Cc1nc(N(C)Cc2ccccc2)c2nnn(Cc3ccccc3)c2n1 -24.3%, O=C(O)c1ccc(N=Nc2c(O)[nH]c3ccccc23)cc1 13.4%, CC(C)Nc1nc(Nc2ccc(C#N)cc2)c2sccc2n1 -1.01%, COc1ccc(CCNC(=O)C2CCC(CNc3c(N4CCCC4)c(=O)c3=O)CC2)cc1OC (centres undefined) 1.43%, CC(CCc1ccccc1)NC(=O)c1ccc(C(=O)NC(C)CCc2ccccc2)cc1 (centres undefined) -4.7%, CCC(C)c1ccccc1NC(=O)C(C)NCCN(C)C (centres undefined) 3.84%, CC(C)C[C@H](NC(=O)c1nc[nH]c1C(=O)NCC(=O)OC(C)(C)C)C(=O)OCc1ccccc1 32.2%, CC(=O)Nc1ccc(-c2cn3cc(C)ccc3n2)cc1 -19%, COc1ccc(S(=O)(=O)N(C)C[C@H]2Oc3ccc(NC(=O)Nc4ccccc4)cc3C(=O)N([C@H](C)CO)C[C@@H]2C)cc1 -29.7%, CC(=O)c1ccc(-c2cnc3c(NC=O)cc(-c4cccc(C(=O)N(C)C)c4)cn23)cc1 8.51%, O=C(NNC(=O)c1cccs1)c1cccc(F)c1 -8.55%, O=C(C1CCN(S(=O)(=O)c2c(Cl)cccc2Cl)CC1)N1CCCCCCC1 -20.4%, CC(Oc1ccc(Br)cc1)C(=O)NCc1ccccn1 (centres undefined) -29.5%, COc1cc(OC)cc(C(=O)N[C@@H](CCSC)c2nc3ccccc3[nH]2)c1 -10.7%, Cc1ccc(Nc2nc3nonc3[nH]c2=O)cc1C 7.28%, Cc1cc(NC(=O)CSc2nnc(-c3ccccc3F)n2C)no1 0%, Cc1cc(C)c(C(=O)N2CCC(N3CCC(C(=O)NC(C)C)CC3)CC2)o1 2.43%, COc1ccc([C@H]2C[C@H](O)[C@@H](n3cc(-c4ccc(F)cc4)nn3)CN2C(=O)C2CCCCC2)cc1 -8.08%

Activity change, active:
c1ccc(COc2cccc(-c3cc4nc(NCCc5ccncc5)ccn4n3)c2)cc1 -59.8%, Fc1ccc(-n2cc(CNCCc3cccnc3)c(-c3ccccc3Cl)n2)cc1 -76.2%, Cc1cc(C)n(CC(O)COc2ccc(Cl)cc2Cl)n1 (centres undefined) -51.7%, COC(=O)c1c(C)[nH]c(O)c1C=Nc1ccc(C(C)C)cc1 -101%, COc1ccc(CCN(C)C(=O)c2cc(=O)c3ccccc3o2)cc1OC -53.8%, Cc1cccc2cc(C#N)c(SCCN3CCCCC3)nc12 -59%, CCOc1cc(/C=C/c2cc(C(F)(F)F)[nH]c(=O)n2)ccc1O -62.6%, CCC1CSC(Nc2ccc(C(=O)/C=C/c3cccc(C)c3)cc2)=N1 (centres undefined) -87.4%, COc1ccc(NC(=O)CC2C(=O)N(C)C(=S)N2CCc2ccccc2F)cc1 (centres undefined) -79.3%, CCOc1ccc2nc(NC(=O)c3ccccn3)sc2c1 -97.9%, CC(C)NC(=O)C1(C#N)C=C1c1ccccc1 (centres undefined) -83.8%, COc1cc2c(cc1N)-c1ccc(N)cc1C2=O -63.6%, COc1cc(/C=C2/C(=O)ON=C2c2ccccc2)ccc1O -105%, CN(Cc1ccccc1)C(=O)COC(=O)/C=C/c1ccc2c(c1)OCO2 -60.4%, O=C(NCC1CCN(Cc2ccccc2F)CC1)Nc1cccc(Br)c1 -84%, O=C(CSc1nc(C2CC2)nc2ccccc12)Nc1ccccc1N1CCOCC1 -76.3%, Cc1sc2ncnc(Sc3nnnn3-c3ccccc3)c2c1C -101%, Cc1cccc(Nc2nc(NCc3ccco3)c3ccccc3n2)c1 -98.1%, Cc1c(N2C(=O)/C(=C/c3cccc4ccccc34)SC2=S)c(=O)n(-c2ccccc2)n1C -79.9%, O=C(NCCNC1CCC(c2ccccc2)CC1)c1cccs1 (centres undefined) -72.1%, COC(=O)C1=C(C)N(Cc2ccc(C)cc2)C(=O)/C1=C\c1cc(OC)c(OC)c(OC)c1 -79.1%, NC(N)=N/N=C/c1ccc(OCc2ccccc2)cc1 -83.1%, CC1=C([N+](=O)[O-])C(c2cccc(Br)c2)C2=C(N1)c1ccccc1C2=O (centres undefined) -63%

Activity change, inconclusive:
O=C(c1cnn(-c2ccc(Cl)cc2)c1)c1ccccc1O -43%, Cc1ccc(Cl)c(OCC(=O)NCC(c2cccs2)N2CCOCC2)c1 (centres undefined) -36.4%, O=C(CNC(=O)c1cccs1)N/N=C/c1cccc(Br)c1 -36.7%, Cc1ccc(C(=O)N2CCN=C2SCc2ccc([N+](=O)[O-])cc2)cc1 -38.8%, CC1CCCCC1NS(=O)(=O)c1ccc(S(=O)(=O)N2CCN(CCC#N)CC2)cc1 (centres undefined) -32.7%, COc1ccc(S(=O)(=O)N2CCOC2CNC(=O)C(=O)NCc2ccc3c(c2)OCO3)cc1C (centres undefined) -30.2%, CCOc1ccc(C(=O)NC2CC3CCCC(C2)N3Cc2ccccc2)cc1 (centres undefined) -47.6%, C=CCn1c(SCC(=O)Nc2ccc(F)cc2)nc2ccccc2c1=O -36.1%, COc1cccc(-c2cc(C(=O)N3CCN(c4ncccn4)CC3)c3ccccc3n2)c1 -36.3%, COc1ccc(Nc2nc(N)c([N+](=O)[O-])c(N3CCOCC3)n2)cc1 -37.8%, COc1ccc(NC(=O)Nc2nnc(Cc3ccccc3)s2)cc1 -32.9%, NC(CCc1ccccc1)c1csc(Nc2nncc3ccccc23)n1 (centres undefined) -31.2%, Cc1ccc(C2c3c(-c4ccccc4O)n[nH]c3C(=O)N2Cc2ccncc2)cc1 (centres undefined) -36.6%, C=CCn1c(SCC(=O)NCc2ccccc2)nnc1-c1ccccc1O -35.7%, c1ccc(C2(CN3CCNC[C@@H]3CC3CCCCC3)CC2)cc1 -42.2%, O=C(NNc1ccc(C2CCCCC2)cc1)C(O)(c1ccccc1)c1cccs1 (centres undefined) -42.1%, O=C(Nc1ccccc1)c1ccc(NC(=O)C2CC2)cc1 -32.4%, COc1ccc(N=Nc2c(C)[nH]c3ccccc23)cc1 -47.9%, CS(=O)(=O)N1CCN(c2ccccc2NC(=O)c2ccc([N+](=O)[O-])o2)CC1 -42.3%, O=P(OC1CCCCC1)(OC1CCCCC1)C(O)c1ccc(Cl)cc1Cl (centres undefined) -30.5%, CCn1c(SCc2nc(-c3ccc(Cl)cc3)no2)nnc1-c1ccco1 -37.2%, O=C(N/N=C1\CCCc2ccccc21)c1cccc([N+](=O)[O-])c1 -36.2%, COc1ccc(CNC(=O)CCNC(=O)C2CCN(S(=O)(=O)c3ccc(OC)cc3)CC2)cc1 -45%, CCC(C)NC(=O)C1CCC(CNS(=O)(=O)c2ccc3c(c2)CC(C)N3C(=O)C2CC2)CC1 (centres undefined) -34.1%, Cc1cc(C)n2nc(SCc3ccc(F)cc3Cl)nc2n1 -36.8%, O=S(=O)(Nc1c(O)ccc2ccccc12)c1ccc(F)cc1 -34.2%, COc1ccc(Cl)cc1C(=O)Nn1c(-c2cccs2)nc2ccccc2c1=O -39.6%, CN(C)S(=O)(=O)N1CCC(Oc2cccc(C(=O)NCCCC3CCCC3)c2)CC1 -43.8%, O=C(Cc1ccc(Br)cc1)NC1CCN(Cc2ccccc2)CC1 -41.1%, O=C(NCCCN1CCOCC1)c1sc2cc(Cl)ccc2c1Cl -33.3%, O=C(Nc1cc(Sc2ccccn2)cc([N+](=O)[O-])c1)c1cccc(Cl)c1 -40.5%, CCc1nc(N2CCN(C(=O)c3ccco3)CC2)c(C#N)c2c1COC(C)(C)C2 -31.5%, COc1ccc(S(=O)(=O)NCC(c2ccc3c(c2)OCO3)N2CCN(c3ccccc3)CC2)cc1 (centres undefined) -30.8%, CC(/C=C/c1ccccc1)=N/NC(=O)c1cnccn1 -35.3%, CCN(CC)CCCn1c2c(c(SCC(=O)Nc3ccc4c(c3)OCCO4)nc1=O)CCC2 -33.1%, Cc1cc(OCC(=O)Nc2cc(S(=O)(=O)N3CCOCC3)ccc2N2CCCC2)ccc1C(C)C -47.3%, Cc1cc(C)c2c3c(sc2n1)C(c1ccccc1)C(C#N)=C(N)O3 (centres undefined) -34.2%, CN(C)c1oc(-c2ccccc2F)nc1C#N -36.4%, O=C(c1ccccc1)c1c[nH]c(C(=O)NNc2ccccc2)c1 -35.9%, COc1cc2c(cc1OC)CN(c1ccc([N+](=O)[O-])cc1C#N)CC2 -43.1%, COc1ccc(-c2ccc(SCc3cccnc3)nn2)cc1OC -35.2%, CC1CCN(c2ccc(C(=O)NCc3ccco3)cc2[N+](=O)[O-])CC1 -44%, CCN1C(=O)c2ccccc2S(=O)c2ccc(C(=O)NCCN(CC(C)C)CC(C)C)cc21 (centres undefined) -36.9%
